Results: the supplement of paper PMC12217912
Some of the results follow. The full chains were built here from the parent and the listed change. Values near 0.05 are background.

B1: TEV protease; numbered along this chain (parent)
chain: MGESLFKGPRDYNPISSSICHLTNESDGHTTSLYGIGFGPFIITNKHLFRRNNGTLVVQSLHGVFKVKDTTTLQQHLVDGRDMIIIRMPKDFPPFPQKLKFREPQREERICLVTTNFQTKSMSSMVSDTSCTFPSGDGIFWKHWIQTKDGQCGSPLVSTRDGFIVGIHSASNFTNTNNYFTSVPKNFMELLTNQEAQQWVSGWRLNADSVLWGGHKVFMVKPEEPFQPVKEATQL

Variants of: B1
Experiment: raw area under fraction-flipped curve 0-4 h after induction (AUC4h, not background-subtracted), DNA-recorder readout of cleavage of the substrate (dimensionless); higher = more cleavage of the substrate by the protease variant
Conditions: temperature: 34 °C; time window: 0-4 h after rhamnose induction
Protocol: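 In vivo DNA recorder in E. coli TOP10(DE3) ΔrhaA at 34 °C. Each TEVp single-site mutant (parent TEVp 0) is paired with a single-site variant of the 7-mer TEVs (canonical ENLYFQ|S). The substrate sits between flexible linkers in a Bxb1-sfGFP-TEVs-SsrA fusion, so cleavage stabilises Bxb1 and speeds flipping of a recombination array, read by NGS. The value is the raw area under the fraction-flipped curve over 0-4 h after rhamnose induction (AUC4h), with ≥20 reads per time point. It is not background-subtracted; inactive controls average about 0.047.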
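Note: Bxb1 expression induced with 0.2% (w/v) L-rhamnose at OD600 near 0.5, cultures sampled hourly, flipped fraction per protease–substrate barcode pair counted by paired-end Illumina sequencing.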

Variant	area with substrate ENLYFQA	area with substrate ENLYFQC	area with substrate ENLYFQF	area with substrate ENLYFQG	area with substrate ENLYFQH	area with substrate ENLYFQK	area with substrate ENLYFQL	area with substrate ENLYFQR	area with substrate ENLYFQS	area with substrate ENLYFQT	area with substrate ENLYFQY	area with substrate ENLYFQD	area with substrate ENLYFQE	area with substrate ENLYFQI	area with substrate ENLYFQM	area with substrate ENLYFQN	area with substrate ENLYFQQ	area with substrate ENLYFQW	area with substrate ENLYFQP	area with substrate ENLYFQV
MGESLFKGPRDYNPISSSICHLTNESDGHTTSLYGIGFGPFIITNKHLFRRNNGTLVVQSLHGVFKVKDTTTLQQHLVDGRDMIIIRMPKDFPPFPQKLKFREPQREERICLVTTNFQTKSMSSMVSDTSCTFPSGDGIFWKHWIQTKDGQCGSPLVKTRDGFIVGIHSASNFTNTNNYFTSVPKNFMELLTNQEAQQWVSGWRLNADSVLWGGHKVFMVKPEEPFQPVKEATQL [S158K]	0.0452	0.0634	0.0492	0.0514	0.0676	0.0422	0.0449	0.0461	0.05	0.0563	0.0447	–	–	–	–	–	–	–	–	–
MGESLFKGPRDYNPISSSICHLTNESIGHTTSLYGIGFGPFIITNKHLFRRNNGTLVVQSLHGVFKVKDTTTLQQHLVDGRDMIIIRMPKDFPPFPQKLKFREPQREERICLVTTNFQTKSMSSMVSDTSCTFPSGDGIFWKHWIQTKDGQCGSPLVSTRDGFIVGIHSASNFTNTNNYFTSVPKNFMELLTNQEAQQWVSGWRLNADSVLWGGHKVFMVKPEEPFQPVKEATQL [D27I]	0.0772	0.0937	–	0.0844	0.0506	0.0535	0.0535	0.0456	0.0863	–	0.0652	0.0484	0.0549	0.0628	0.0672	0.0699	0.0633	0.0686	–	–
MGESLFKGPRDYNPISSSICHLTNESDGHTTSLYGIGFGPFIITNKHLFRRNNGTLVVQSLHGVFKVKDTTTLQQHLVDGRDMIIIRMPKDFPPFPQKLKFREPQREERICLVTTNFQTKSMSSMVSDTSCTFPSGDGIFWKHWIQTKDGQCGSPLVSTRDGFIVGIHSASNFTNTNNYFTSVPKNFMELRTNQEAQQWVSGWRLNADSVLWGGHKVFMVKPEEPFQPVKEATQL [L191R]	0.0667	0.0592	–	–	0.0619	0.0555	0.0558	0.0347	0.0588	0.0523	–	–	–	0.0395	–	–	0.0482	0.0543	0.0532	0.0612
MGESLFKGPRDYNPISSSICHLTNESDGHTTSLYGIGFGPFIITNKHLFRRNNGTLVVQSLHGVFKVKDTTTLQQHLVDGRDMIIIRMPKDFPPFPQKLKFREPQREERICLVTTNFQTKSMSSMVSDTSCTFPSGDGIFWKHWIQTKDGQCGSPLVSTRDGFIVGIHSASNFTNTNNYFTSVPKNFMELLTNQEAQQWVSGWRLNADSVLWGGHKVFMKKPEEPFQPVKEATQL [V220K]	0.0949	–	–	0.101	0.067	0.0663	–	0.053	0.102	0.0636	–	0.105	–	–	0.0928	0.107	–	0.0754	–	0.0818
MGESLFKGPRDYNPISSSICHLTNESDGHTTSLYGIGFGPFIITNKHLFRRNNGTLVVQSLHGVFKVKDTTTLQQHLVDGRDMIIIRMPKDFPPFPQKLKFREPQREERICLVTTNFQTKSMSSMVSDTSCTFPSGDGIFWKHWIQTKDGQCGSPLVSTRDGFIVGIHSASNFTNTNNYFTSVPKNFMELLTNQEAQQWVSGWRLNADSVLWGGHKVFMVKPEEPFQPVKEATPL [Q234P]	0.0863	0.0928	0.0662	0.0969	–	–	0.0163	0.0568	0.0964	0.0759	0.0733	0.0731	–	0.0444	0.0816	0.0948	–	0.0604	–	0.0715
MGESLFKGPRDYNPISSSICHLTNESDGHTTSLYGIGFGPFIITNKHLFRRNNGTLVVQSLHGVFKVKDTTTLQQHLVDGRDMIIIRMPKDFPPFPQKLKFREPQREERICLVTTNFQTKSMSSMVSDTSCTFPSGDGIFWKHWIQTKDGQCGSPLVSTRDGFIVGIHSASNFTNTNNYFTSVPRNFMELLTNQEAQQWVSGWRLNADSVLWGGHKVFMVKPEEPFQPVKEATQL [K185R]	0.118	0.0851	0.0801	–	–	0.08	–	0.0526	0.105	0.0638	0.0702	–	–	0.0615	–	0.0668	0.0757	0.0564	–	–
MGESLFKGPRDYNPISSSICHLTNESDGHTTSLYGIGFGPFIITNKHLFRRNNGTLVVQNLHGVFKVKDTTTLQQHLVDGRDMIIIRMPKDFPPFPQKLKFREPQREERICLVTTNFQTKSMSSMVSDTSCTFPSGDGIFWKHWIQTKDGQCGSPLVSTRDGFIVGIHSASNFTNTNNYFTSVPKNFMELLTNQEAQQWVSGWRLNADSVLWGGHKVFMVKPEEPFQPVKEATQL [S60N]	0.144	–	–	0.105	–	0.0632	0.0618	0.0764	0.0931	0.076	0.0457	–	–	0.0564	–	–	0.0678	0.0618	0.0659	0.0625
MGESLFKGPRDYNPISSSICHLTNESDGHTTSLYGIGFGPFIITNKHLFRRNNGTLVVQSLHGVFKVKDTTTLQQHLVDGRDMIIIRMPKDFPPFPQKLKFREPQREERICLVTTNFQTKSMSSMVSDTSCTFPSGDGIFWKHWIQTKDGQCGSPLVSTRDGFIVGPHSASNFTNTNNYFTSVPKNFMELLTNQEAQQWVSGWRLNADSVLWGGHKVFMVKPEEPFQPVKEATQL [I167P]	0.0618	0.0497	–	–	0.051	–	0.0585	0.0473	0.0511	–	0.0488	–	0.0437	0.0509	0.0519	0.0509	–	0.0444	–	0.034
MGESLFKGPRDYNPISSSICHLTNESDGHTTSLYGIGFGPFIITNKHLFRRNNGTLVVQSLHGVFKVKDTTWLQQHLVDGRDMIIIRMPKDFPPFPQKLKFREPQREERICLVTTNFQTKSMSSMVSDTSCTFPSGDGIFWKHWIQTKDGQCGSPLVSTRDGFIVGIHSASNFTNTNNYFTSVPKNFMELLTNQEAQQWVSGWRLNADSVLWGGHKVFMVKPEEPFQPVKEATQL [T72W]	0.0711	0.0849	–	0.0689	0.0688	–	–	0.0522	0.0789	0.0674	–	0.0663	–	–	–	0.0543	–	0.053	–	–
